The source of these data is the supplement of paper PMC4967469.

A lower IC50 marks a more sensitive line; fits outside the tested doses are given as limits. For AUC the same curve is integrated over the 256-fold range of doses and scaled to a fraction; values near 1 show little effect.

Compound in the experiment: Cn1c(=O)n(-c2ccc(C(C)(C)C#N)cc2)c2c3cc(-c4cnc5ccccc5c4)ccc3ncc21 [NVP-BEZ235]
Description: Viability of human cancer cell lines after 72 h of drug (GDSC screen). How it is done:
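Human cancer cell lines in 384-well plates, medium with 10% serum, drug for 72 h over a 256-fold dose range (nine 2-fold or five 4-fold steps up to the top dose). Adherent lines were fixed and stained with the nucleic acid dye Syto60, suspension lines read with resazurin; signal relative to control wells, capped at 0 and 100%. One two-parameter sigmoid per drug and line, fitted in a mixed model over all curves with the slope shared within a line.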

As to “JURL-MK1 (chronic myeloid leukaemia, suspension, top dose 0.25 µM)”, the AUC worked out at 0.689 and the IC50 (in general, the midpoint of a concentration-inhibition curve) is 52.6 nM.
Consider “JVM-2 (lymphoid neoplasm, suspension, top dose 0.25 µM)”, for which the AUC was 0.663 and the IC50 came to 49.4 nM.
For “JVM-3 (lymphoid neoplasm, suspension, top dose 0.25 µM)”, in that order: 0.675 and 48.6 nM.
For “JiyoyeP-2003 (Burkitt lymphoma, suspension, top dose 0.25 µM)”, in that order: 0.731 and 64.4 nM.
Regarding “Jurkat (T-cell leukaemia, suspension, top dose 0.25 µM)”, the AUC worked out at 0.868 and the IC50 worked out at 163 nM.
The corresponding values for “K2 (melanoma, adherent, top dose 0.25 µM)” are 0.847 and above 250 nM.
The corresponding values for “KARPAS-45 (lymphoblastic leukaemia, suspension, top dose 0.25 µM)” are 0.682 and 45.5 nM.
For “KARPAS-231 (B-cell leukaemia, suspension, top dose 0.25 µM)”, the AUC came out at 0.592 and the IC50 stood at 26.2 nM.
For “KARPAS-299 (anaplastic large cell lymphoma, suspension, top dose 0.25 µM)”, in that order: 0.603 and 28.5 nM.
On to “KARPAS-422 (B-cell lymphoma, suspension, top dose 0.25 µM)”, for which the AUC worked out at 0.75 and the IC50 was determined as 80.9 nM.
As to “KARPAS-620 (haematopoietic neoplasm, suspension, top dose 0.25 µM)”, the AUC was determined as 0.654 and the concentration for half-maximal inhibition (IC50) is 38.9 nM.
Take “KARPAS-1106P (B-cell lymphoma, suspension, top dose 0.25 µM)”: the AUC was found to be 0.545 and the IC50 turned out to be 20.3 nM.
Take “KATOIII (stomach, semi-adherent, top dose 0.25 µM)”: the AUC turned out to be 0.788 and the IC50 was determined as 99.5 nM.
In the case of “KCL-22 (chronic myeloid leukaemia, suspension, top dose 0.25 µM)”, the AUC worked out at 0.647 and the IC50 was 37 nM.
Regarding “KE-37 (lymphoblastic leukaemia, suspension, top dose 0.25 µM)”, the AUC worked out at 0.596 and the IC50 was determined as 26.9 nM.
For “KELLY (neuroblastoma, adherent, top dose 0.25 µM)”, in that order: 0.596 and 27.8 nM.
The corresponding values for “KG-1 (acute myeloid leukaemia, suspension, top dose 0.25 µM)” are 0.874 and 199 nM.
On to KGN (ovary, adherent, top dose 0.25 µM), for which the AUC stood at 0.698 and the IC50 turned out to be 64.2 nM.
For “KINGS-1 (glioma, adherent, top dose 0.25 µM)”, in that order: 0.711 and 78.3 nM.
In the case of “KLE (endometrium, adherent, top dose 0.25 µM)”, the AUC was determined as 0.824 and the IC50 is above 250 nM.
As for “KM12 (large intestine, adherent, top dose 0.25 µM)”, the AUC amounted to 0.838 and the IC50 came to 191 nM.
For “KM-H2 (Hodgkin lymphoma, suspension, top dose 0.25 µM)”, in that order: 0.963 and above 250 nM.
Turning to “KMH-2 (thyroid, adherent, top dose 0.25 µM)”, the AUC amounted to 0.72 and the IC50 is 60.3 nM.
Consider “KMOE-2 (acute myeloid leukaemia, suspension, top dose 0.25 µM)”, for which the AUC turned out to be 0.717 and the IC50 is 59.3 nM.
For “KMRC-1 (kidney, adherent, top dose 0.25 µM)”, in that order: 0.686 and 53.5 nM.
For “KMRC-20 (kidney, adherent, top dose 0.25 µM)”, in that order: 0.661 and 44 nM.
Regarding “KMS-11 (myeloma, suspension, top dose 0.25 µM)”, the AUC was 0.738 and the IC50 turned out to be 66.2 nM.
The corresponding values for “KNS-42 (glioma, adherent, top dose 0.25 µM)” are 0.788 and 133 nM.
Consider “KNS-62 (lung squamous cell carcinoma, adherent, top dose 0.25 µM)”, for which the AUC is 0.651 and the IC50 was determined as 49.8 nM.
The corresponding values for “KNS-81-FD (glioma, adherent, top dose 0.25 µM)” are 0.56 and 24.1 nM.
Regarding “KON (head and neck, adherent, top dose 0.25 µM)”, the AUC turned out to be 0.419 and the IC50 amounted to 9.44 nM.
In the case of “KOPN-8 (B-cell leukaemia, suspension, top dose 0.25 µM)”, the AUC was determined as 0.622 and the IC50 came to 32.1 nM.
Consider “KP-1N (pancreas, adherent, top dose 0.25 µM)”, for which the AUC was found to be 0.768 and the IC50 turned out to be 98.1 nM.
As for “KP-2 (pancreas, adherent, top dose 0.25 µM)”, the AUC stood at 0.699 and the IC50 amounted to 59.7 nM.
The corresponding values for “KP-3 (pancreas, adherent, top dose 0.25 µM)” are 0.801 and 149 nM.
For “KP-N-YN (neuroblastoma, adherent, top dose 0.25 µM)”, in that order: 0.987 and above 250 nM.
For “KS-1 (glioma, adherent, top dose 0.25 µM)”, in that order: 0.639 and 41.6 nM.
For “KU812 (chronic myeloid leukaemia, suspension, top dose 0.25 µM)”, the AUC amounted to 0.785 and the IC50 is 97.3 nM.
“KU-19-19 (bladder, adherent, top dose 0.25 µM)”: the AUC was 0.609.
In the case of “KURAMOCHI (ovary, adherent, top dose 0.25 µM)”, the AUC amounted to 0.817 and the IC50 was 169 nM.
Consider “KY821 (leukaemia, suspension, top dose 0.25 µM)”, for which the AUC was 0.878 and the IC50 worked out at 199 nM.
The corresponding values for “KYAE-1 (oesophagus, suspension, top dose 0.25 µM)” are 0.645 and 41.3 nM.
For “KYM-1 (rhabdomyosarcoma, adherent, top dose 2 µM)”, in that order: 0.217 and 21.8 nM.
The corresponding values for “KYSE-50 (oesophagus, adherent, top dose 0.25 µM)” are 0.899 and above 250 nM.
For the cell line “KYSE-140 (oesophagus, adherent, top dose 0.25 µM)”, the AUC is 0.715 and the IC50 came out at 69.3 nM.
With “KYSE-150 (oesophagus, adherent, top dose 0.25 µM)”, the AUC worked out at 0.591 and the IC50 was found to be 27.5 nM.
Turning to “KYSE-220 (oesophagus, adherent, top dose 0.25 µM)”, the AUC came to 0.895 and the IC50 was above 250 nM.
The corresponding values for “KYSE-410 (oesophagus, adherent, top dose 0.25 µM)” are 0.562 and 23.3 nM.
